Hit rate of the full screen: of about 48,000 compounds, about 120 (0.25%) were called active. Another 4% or so got no clear call; they are omitted. The call rests on the fitted dose curve; in most records, active means well fitted activation curve with a large enough effect; inconclusive means small, poorly fitted or top-dose-only effect, or another doubt; inactive means no such curve, though single readings can be large or run the other way. This is one part of the list.
Test: Primary qHTS for Identification of Small Molecule Activators of Huntingtin-Antisense Promoter Activity; further: nearly all actives have a fitted effect of over 55% in size
Settings: HEK293 HTT-AS promoter firefly luciferase reporter, 24 h; series mostly up to 57.5 µM; activity change, positive = activation: at the top concentration
Method in brief: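 Firefly luciferase signal from promoter-reporter HEK293 cells was scaled between vehicle (0%) and zero RLU (-100%). Compounds were tested at final concentrations of up to 57.5 uM over 24 h at 37 degrees C. PTC124 at 50 uM final served as control inhibitor.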
Potency means the concentration at half of the fitted maximal effect.

**Q.** For `Cc1ccc(C)c(Cn2c3ccccc3c3cnn(CC(=O)NCC(C)c4ccccc4)c(=O)c32)c1` (configuration not stated), which “activity change, positive = activation” value is on record?
**A.** The value was inactive: -6.2%.

**Q.** For `O=C(CSCc1ccccc1Cl)NCc1ccc(Cl)c(Cl)c1`, which “activity change, positive = activation” value is on record?
**A.** The value was inactive: 2.7%.

**Q.** Which “activity change, positive = activation” value does the source give for `CCCCOc1ccccc1NC(=O)Cn1c(-c2cncs2)nc2ccccc21` here?
**A.** The value was inactive: -25.5%.

**Q.** For `O=C(NC1CC(=O)N(c2ccccc2)C1)c1cc2ccccc2o1` (configuration not stated), which “activity change, positive = activation” value is on record?
**A.** The value was inactive: -12.7%.

**Q.** For `COc1ccc(OC)c(-n2cnc3cc(C(=O)NC4CCCC4)ccc32)c1`, which “activity change, positive = activation” value is on record?
**A.** Its value is inactive: -11.5%.

**Q.** With `O=C(Nc1nnc(S(=O)(=O)N2CCCC2)s1)c1ccc(F)cc1` as the compound, how does the “activity change, positive = activation” value read?
**A.** The value was inactive: -3.01%.

**Q.** For `Cc1oc(-c2ccccc2)nc1CNS(=O)(=O)c1ccc(Cl)cc1`, which “activity change, positive = activation” value is on record?
**A.** Its value is inactive: -17.2%.

**Q.** With `O=C(Nc1ccc(Cl)cc1)Nc1ccc(Cl)c(Cl)c1` as the compound, how does the “activity change, positive = activation” value read?
**A.** Its value is inactive: -92.9%.

**Q.** With `CC=C(C)C(=O)O[C@H]1C(C)=C[C@]23C(=O)[C@@H](C=C(CO)[C@@H](O)[C@]12O)[C@H]1[C@@H](C[C@H]3C)C1(C)C` as the compound, how does the “activity change, positive = activation” value read?
**A.** Its value is inactive: 3.88%.

**Q.** With `CN1CCN(Cc2c(O)ccc3cc(-c4ccccc4)c(=O)oc23)CC1` as the compound, how does the “activity change, positive = activation” value read?
**A.** The value was inactive: -3.94%.

**Q.** Which “activity change, positive = activation” value does the source give for `CCOc1ccc(-c2cc(C(=O)NCc3ccc(OC)cc3)c3c(-c4ccc(F)cc4)[nH]nc3n2)cc1` here?
**A.** Its value is inactive: -23.6%.

**Q.** Which “activity change, positive = activation” value does the source give for `Cc1cccc(-c2nc(N3CCN(c4ccc(F)cc4)CC3)c3ccccc3n2)c1` here?
**A.** Its value is inactive: -7.68%.

**Q.** For `COc1ccc(Nc2nc3c(S(=O)(=O)c4ccccc4)nnn3c3ccc(Cl)cc23)cc1OC`, which “activity change, positive = activation” value is on record?
**A.** Its value is inactive: 0%.

**Q.** Which “activity change, positive = activation” value does the source give for `CCOC(=O)c1cccc(NC(=O)c2cc3c(=O)n(Cc4cccnc4)ccc3nc2C)c1` here?
**A.** Its value is inactive: -11.8%.

**Q.** For `Cc1ccc(-n2c(=O)c3c(cnn3C)n(CC(=O)Nc3cc(C)ccc3C)c2=O)cc1`, which “activity change, positive = activation” value is on record?
**A.** Its value is inactive: -9.61%.

**Q.** With `O=C(CCSCc1cnn(-c2ccccc2)c1-n1cccc1)NCc1ccc(Cl)cc1` as the compound, how does the “activity change, positive = activation” value read?
**A.** The value was inactive: -31.7%.

**Q.** Which “activity change, positive = activation” value does the source give for `O=C1c2c(O)cccc2Cc2cccc(O)c21` here?
**A.** Its value is inactive: 1.36%.

**Q.** With `Cc1ccc(NC(=O)Cn2cc(C(=O)c3cccs3)c3ccccc32)cc1C` as the compound, how does the “activity change, positive = activation” value read?
**A.** Its value is inactive: -21.7%.

**Q.** With `Cc1ccc(C(=O)c2cn(Cc3cccc(F)c3)c3nc(C)ccc3c2=O)cc1` as the compound, how does the “activity change, positive = activation” value read?
**A.** Its value is inactive: -19.9%.

**Q.** For `COc1ccc(C(=O)NCc2ccc3c(c2)CCN3C(=O)c2cccc(C)c2)cc1OC`, which “activity change, positive = activation” value is on record?
**A.** Its value is inactive: -4.42%.

**Q.** For `O=C(CCn1cccn1)Nc1cccc(C(F)(F)F)c1`, which “activity change, positive = activation” value is on record?
**A.** Its value is inactive: -3.4%.

**Q.** With `Cc1oc2ncnc(N3CCOCC3)c2c1C(=O)NCc1ccccc1` as the compound, how does the “activity change, positive = activation” value read?
**A.** Its value is inactive: -4.29%.

**Q.** For `O=C(O)CCCC[P+](c1ccccc1)(c1ccccc1)c1ccccc1`, which “activity change, positive = activation” value is on record?
**A.** The value was inactive: -4.05%.

**Q.** Which “activity change, positive = activation” value does the source give for `COc1ccc(CCNC(=O)CSc2nc3ccccc3nc2Cc2ccc(Cl)cc2)cc1OC` here?
**A.** Its value is inactive: -16.6%.

**Q.** Which “activity change, positive = activation” value does the source give for `Cc1nc2sccn2c(=O)c1S(=O)(=O)N1CCN(c2ccc(F)cc2)CC1` here?
**A.** Its value is inactive: -15.3%.

**Q.** With `Cc1cccc(NS(=O)(=O)c2ccc(Cl)c(C(=O)Nc3ccccc3C)c2)c1` as the compound, how does the “activity change, positive = activation” value read?
**A.** Its value is inactive: -31.3%.

**Q.** For `CC(C)Cn1c(-c2ccc(S(=O)(=O)N3CCCC3)cc2)csc1=Nc1ccccc1`, which “activity change, positive = activation” value is on record?
**A.** Its value is inactive: -19%.

**Q.** For `COc1nccc(-c2c(-c3ccc(F)cc3)ncn2C2CCC(O)CC2)n1` (configuration not stated), which “activity change, positive = activation” value is on record?
**A.** Its value is inactive: -9.31%.

**Q.** With `COc1ccc(S(=O)(=O)NCCS(=O)(=O)N2CCN(c3ccccc3F)CC2)cc1` as the compound, how does the “activity change, positive = activation” value read?
**A.** The value was inactive: -23.3%.

**Q.** Which “activity change, positive = activation” value does the source give for `c1csc(-c2nc3ccccn3c2Nc2ccc3c(c2)OCCO3)c1` here?
**A.** The value was inactive: 13.4%.

**Q.** For `COc1ccccc1CNC(=O)c1cccc(NC(=O)N2CCSc3ncccc32)c1`, which “activity change, positive = activation” value is on record?
**A.** Its value is inactive: -6.77%.

**Q.** With `CCCCOC(=O)c1ccc(NC(=O)CSc2nc3c(c(=O)[nH]2)CCC3)cc1` as the compound, how does the “activity change, positive = activation” value read?
**A.** Its value is inactive: -21.4%.

**Q.** For `CC(=O)c1ccc(N2CCN(c3ncnc4onc(-c5ccc(Cl)cc5)c34)CC2)cc1`, which “activity change, positive = activation” value is on record?
**A.** The value was inactive: -36.7%.

**Q.** For `COc1ccc(CCNC(=O)c2ccc(Cn3c(=O)c4ccccc4n(Cc4ccccc4Cl)c3=O)cc2)cc1OC`, which “activity change, positive = activation” value is on record?
**A.** Its value is inactive: -13.4%.

**Q.** With `COC(=O)c1c(-c2ccc(Cl)cc2)noc1N1CCN(c2cccc(OC)c2)CC1` as the compound, how does the “activity change, positive = activation” value read?
**A.** The value was inactive: -55.2%.

**Q.** With `CCOc1cc(-c2ccc(OC(=O)c3ccc(Cl)cc3)c(OC)c2)cc(=O)c2c(C)oc(C)c12` as the compound, how does the “activity change, positive = activation” value read?
**A.** The value was inactive: -7.38%.

**Q.** For `Cc1nnc(N2C(=O)c3oc4ccccc4c(=O)c3C2c2ccc(F)cc2)s1` (configuration not stated), which activity change, positive = activation is on record?
**A.** The activity change, positive = activation was inactive: -0.697% [at 11.5 µM, percent change from vehicle, -100% = no light].

**Q.** With `Cc1c(C(=O)NCc2ccc(F)cc2)sc2nc(-c3ccccc3)cn12` as the compound, how does the “activity change, positive = activation” value read?
**A.** Its value is inactive: 8.23%.

**Q.** Which “activity change, positive = activation” value does the source give for `Oc1c(C(c2ccc(Cl)cc2)N2CCCC2)sc2nc(-c3ccco3)nn12` (configuration not stated) here?
**A.** The value was inactive: 9.58%.

**Q.** With `CCOc1ccccc1C(=O)NCC(c1ccc(N(C)C)cc1)N1CCc2ccccc21` (configuration not stated) as the compound, how does the “activity change, positive = activation” value read?
**A.** Its value is inactive: -30.3%.

**Q.** Which “activity change, positive = activation” value does the source give for `CCCCCn1c(=O)[nH]c2cc(C(=O)N3CCN(c4ccccc4F)CC3)ccc2c1=O` here?
**A.** The value was inactive: -20.8%.

**Q.** Which “activity change, positive = activation” value does the source give for `CCOC(=O)c1cccc(Nc2nc(C(=O)OCC)nc3ccccc23)c1` here?
**A.** Its value is inactive: -24.8%.

**Q.** For `CCOC(=O)c1[nH]c2ccccc2c1NC(=O)c1ccc(OCC)cc1`, which “activity change, positive = activation” value is on record?
**A.** The value was inactive: -1.26%.

**Q.** For `Cc1ccc(-n2ncc3c(NCCCn4ccnc4)ncnc32)cc1`, which “activity change, positive = activation” value is on record?
**A.** Its value is inactive: -12.9%.

**Q.** With `COCCCCC(=NOCCN)c1ccc(C(F)(F)F)cc1` as the compound, how does the “activity change, positive = activation” value read?
**A.** Its value is inactive: -34.4%.

**Q.** For `Cc1ccc(NC(=O)c2cc(-c3cccs3)on2)cc1C`, which Potency is on record?
**A.** The Potency was active: 8.91 µM.

**Q.** With `CCN1CCN(CCCNC(=O)c2cnn(-c3ccc(C)cc3)c2C2CCN(C(=O)OC(C)(C)C)CC2)CC1` as the compound, how does the “activity change, positive = activation” value read?
**A.** Its value is inactive: 1.69%.

Reference: PubChem BioAssay AID1508624 (National Center for Advancing Translational Sciences (NCATS), 2021)
